Test results reported in ChEMBL document CHEMBL4888484, “Replenishing the malaria drug discovery pipeline: Screening and hit evaluation of the MMV Hit Generation Library 1 (HGL1) against asexual blood stage Plasmodium falciparum ,using a nano luciferase reporter read-out” (2022).
Out of some 150,000 compounds screened, about 540 (0.36%) showed an effect of 50% or more. The list shows a part of the results.

What follows are compounds tested on Plasmodium falciparum (assay: Primary screen in NF54 nanoGlo assay, in single point, at 2uM, 72h; a lower Z score goes with more inhibition). Settings: timepoint 72 hour.
Type: functional, Erythrocyte

| Structure (SMILES) | % Inhibition [%] | Z score |
| --- | --- | --- |
| CCOC(=O)c1sc(N(C)Cc2nnc[nH]2)nc1C | -4 | 0.39 |
| Cc1nn(Cc2cccnc2)c(=O)n1C | -5 | 0.69 |
| CCN(Cc1ccccc1Br)[C@H]1CCNC1=O | -10 | 1.14 |
| C[C@@H]1CN(CC2CCCN(C(=O)OC(C)(C)C)C2)C[C@H](C)O1 (some centres not stated) | -4 | 0.67 |
| C[C@H]1CCCN(c2ncnc(Oc3ccc4c(c3)OCO4)c2N)C1 | 4 | -0.73 |
| O=C(NCCc1csc(N2CCCC2)n1)c1cscn1 | -17 | 2.36 |
| FS(F)(F)(F)(F)c1ccc2nc(NCc3nnn[nH]3)sc2c1 | -12 | 2.22 |
| Nc1c2c(nc3c1cnn3-c1cccc(F)c1)C[C@H](c1cc(F)cc(F)c1)CC2=O | -11 | 1.43 |
| CCOC[C@H]1CCN(C(=O)Nc2ncc(C(C)(C)C)s2)C1 | 16 | -1.91 |
| Cc1cc(NCCc2ncccc2C)nc(C)n1 | -11 | 1.24 |
| O=C(CC1CCCC1)Nc1ccccn1 | -6 | 0.64 |
| COc1ccc(CNc2nccc(-n3nc(C)cc3C)n2)c(OC)c1 | -3 | 0.48 |
| CCc1ccc([C@@H]2COCCN2Cc2nnc(C)o2)o1 | 2 | -0.27 |
| CN(c1nccc(C#N)n1)C1CCCCCC1 | -14 | 1.86 |
| CCOc1ccc(CNC(=O)[C@H]2CCCN(S(=O)(=O)N3CCC(C)CC3)C2)cc1OC | -13 | 2.28 |
| O=C(NCc1cccnc1)c1cc(-c2cccc3ccccc23)[nH]n1 | 33 | -3.73 |
| CN(Cc1nc2ccccc2c(=O)[nH]1)C(=O)c1ccc2c(c1)OCO2 | -5 | 0.88 |
| CCc1nsc(N2CCC[C@H](c3n[nH]c(N)n3)C2)n1 | -8 | 1.58 |
| Cc1cccc(C(=O)N2CCC(NC(=O)c3ccoc3C)CC2)n1 | -8 | 1.51 |

| Structure (SMILES) | % Inhibition [%] | Z score |
| --- | --- | --- |
| CS(=O)(=O)N[C@H]1CCCN(C(=O)C2CCC2)C1 | -6 | 0.54 |
| COC(=O)[C@H](CO)NC(=O)c1cccc(NCC(C)(C)C)c1C | 6 | -0.72 |
| COC(=O)c1n[nH]cc1CN1CCC[C@H]1c1nc2ccccc2s1 | -5 | 0.51 |
| COC(=O)c1ccc(Nc2cc(C(=O)N3CCC[C@H](C)C3)nc3ccc(C)cc23)cc1 | 3 | -0.64 |
| COc1cnc(N(C)C(=O)c2cnc(C(C)(C)C)s2)nc1 | -9 | 1.31 |
| Cc1c(C(=O)N(CCc2ccccc2)CC(=O)O)cccc1N1CCNC1=O | 6 | -1.17 |
| C[C@H](NCc1ccnn1C)c1cn[nH]c1 | -15 | 2.92 |
| CC/C=C(/CN1CCC(N2CCN(CCO)CC2)CC1)c1ccccc1 | -6 | 0.72 |
| c1coc(-c2nc(C3CC3)nn2C2CCCCC2)c1 | -9 | 0.98 |
| O=C(Nc1cccc(-c2nc3ccccc3s2)c1)c1ccc(-c2ccccc2)cc1 | 2 | -0.33 |
| Cc1ccccc1NC(=O)N1C[C@@H]2[C@H]3CC[C@H](CC3)[C@@H]2C1 | 9 | -1.8 |
| Cn1c([C@H]2CCN(C(=O)C3CCCCC3)C2)nc2ccccc21 | 5 | -0.88 |
| O=C(Cc1cccnc1)NC[C@H]1CCCOC1 | 7 | -0.76 |
| CCN(CC)CC#C[C@H](C)OC(=O)c1cccc(C(=O)NC)c1 | -3 | 0.45 |
| Cc1[nH]c2ccc(CNc3nccc(N)n3)cc2c1C | -5 | 0.52 |
| C#CCCC1(CCC(=O)N2C[C@@H]3CCCN3c3ccccc32)N=N1 | -7 | 0.87 |
| COCc1noc(CNc2cc3c(cc2Br)CCC3)n1 | -11 | 1.42 |
| CCN1CCC2CCC(C1)N2C(=O)c1cc(O)cc(O)c1 (configuration not stated) | -6 | 0.96 |
| CCC(=O)N1CCCC[C@H]1c1nnc2n1CCN(C(=O)NC1CCCC1)C2 | -3 | 0.41 |

| Structure (SMILES) | % Inhibition [%] | Z score |
| --- | --- | --- |
| CC1CCC(N2CC(=O)N(C3CCCC3)[C@@H](c3ccc(Cl)cc3)C2=O)CC1 (some centres not stated) | 2 | -0.38 |
| COc1ccc(OCC(=O)NC(C)C)c(C(N)=O)c1 | 3 | -0.49 |
| CC[C@@]1(C)CCCN(C(=O)Cc2c(C)noc2Cl)C1 | 85 | -13.67 |
| Cc1ccnn1CCC(=O)N[C@H]1CCC[C@H]1Cc1ccc(F)cc1 | -18 | 1.89 |
| CC[C@H](C)NC(=O)CN1CCN(C(=O)c2ncoc2-c2ccc(C)cc2)CC1 | -6 | 0.78 |
| Cc1[nH]c2ccccc2c1C1CCN(CC2(CO)COC2)CC1 | -1 | 0.18 |
| c1csc(-c2nnc(C3CCCCC3)o2)c1 | -15 | 2.34 |
| N#Cc1c(N)nc2c(c1-c1c[nH]cn1)CCc1occc1-2 | 3 | -0.52 |
| c1cc(CN2CC(N3CCOCC3)C2)cc(-c2ccco2)c1 | -18 | 1.97 |
| COc1ccc(CC(=O)NO[C@@H](C)C(=O)Nc2c(C)cc(C)cc2Cl)cc1OC | 2 | -0.19 |
| COc1ccc(CNC(=O)Cn2cnc3oc(C)c(C)c3c2=O)cc1 | -11 | 1.32 |
| COc1cccc(N2CCN(C(=O)c3cc(N)ccn3)[C@@H](C)C2=O)c1 | -16 | 1.97 |
| Cc1cnc(NC(=O)C2CCC(=O)N(C)C2c2cccc(F)c2)s1 (configuration not stated) | 34 | -4.6 |
| O=C(Cc1ccccc1)N[C@H]1CCCc2c1[nH]c1c(Cl)cccc21 | -16 | 3.1 |
| O=C(NCc1ccc2c(c1)OCO2)c1nn(-c2ccc(F)cc2)c2ccccc2c1=O | -5 | 0.69 |
| O=C(NC1CCCC1)N1CCC[C@H](C(=O)N2CCN(c3cccc(Cl)c3)CC2)C1 | -5 | 0.92 |
| c1ccc(CN2C3CCCC2CC(NCc2cc[nH]n2)C3)cc1 (configuration not stated) | 2 | -0.44 |
| Cc1nc(C2CN(c3ncnc4[nH]ncc34)C2)n[nH]1 | -9 | 0.95 |
